Sequences and labels used below:
B1: TPR 5TU (parent)
chain: GGAUCUUCUCGAUCUAACAAAAAAGACAAAUCUGCCACAAAGCUUGAGAGCAUCUUCGGAUGCAGAGGCGGCAGCCUUCGGUGGCGCGAUAGCGCCAACGUUCUCAACUAUGACACGCAAAACGCGUGCUCCGUUGAAUGGAGUUUAUCAUG

Variants at the background level are over-represented here.

The variants in this data set derive from B1. Kind of data set: polymerase ribozyme fitness, log enrichment relative to wild type (log ratio); higher = more active; in vitro selection for triplet polymerase activity. The gist of the method: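 Fitness is a logarithmic measure of how a genotype enriched relative to the wild type, with replicate averages weighted by inverse variance. The logarithm uses base 2, and enrichment came from Illumina sequencing of input and output libraries. Those libraries were PCR-built, transcribed mutants of each subunit of a heterodimeric triplet polymerase ribozyme, passed through one triplicate in vitro selection round that included frozen incubation at −7 °C, gel excision of extended constructs and streptavidin-bead capture. Genotypes were kept only if they had ≥10 input reads and ≥1 read per output.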
Take U90G C95G: the “polymerase ribozyme fitness (log ratio)” value is no more than -4.2. With A91U C118G A120G C149U the figure was no more than -4.2. With U90C C95A G100C U134C, the “polymerase ribozyme fitness (log ratio)” value was no more than -4.2. Take A89G C125U C132U: the “polymerase ribozyme fitness (log ratio)” value is -1.73. For C96A G128U, the “polymerase ribozyme fitness (log ratio)” value was -2.45. For the variant C96U G133A, the “polymerase ribozyme fitness (log ratio)” value was -3.92. U90C C93G A97U U144C: the “polymerase ribozyme fitness (log ratio)” value is no more than -4.2. With A89C C96U A97C C99U, the “polymerase ribozyme fitness (log ratio)” value was -3.09. C93A C125U: the “polymerase ribozyme fitness (log ratio)” value is -2.47. Regarding C87U A115U G140U, the “polymerase ribozyme fitness (log ratio)” value was -4.19.

As for C93G G112A, the “polymerase ribozyme fitness (log ratio)” value is no more than -4.2. With A91C C95A C132U the figure was no more than -4.2; with C87A A91G, no more than -4.2. With G94A A119U, the “polymerase ribozyme fitness (log ratio)” value is -2.21. Take C87U C103A U127A: the “polymerase ribozyme fitness (log ratio)” value is no more than -4.2. With C96U A113U G124U, the “polymerase ribozyme fitness (log ratio)” value is -2.41. As to C93A A106C A120U, the “polymerase ribozyme fitness (log ratio)” value is -2.8. G94A G112U: the “polymerase ribozyme fitness (log ratio)” value is no more than -4.2. With A91C A106C, the “polymerase ribozyme fitness (log ratio)” value was no more than -4.2.

As to A91C A106U, the “polymerase ribozyme fitness (log ratio)” value was no more than -4.2. For the variant G88A U101G A107U, the “polymerase ribozyme fitness (log ratio)” value is no more than -4.2. Take G92A C149U: the “polymerase ribozyme fitness (log ratio)” value was -3.4. With G92A U134A A142U A147G the figure was no more than -4.2. Turning to C93A A98G, the “polymerase ribozyme fitness (log ratio)” value was -1.81. With G88A C93U the figure was no more than -4.2; with G88A G92C, no more than -4.2. With G94C G126A the figure was 0.311; with U90G G92A A106C C118U, no more than -4.2; with G86U U90G G92A A107G U135G, no more than -4.2. Take C95U U145A: the “polymerase ribozyme fitness (log ratio)” value was 0.0594. For the variant C93G C105A A107G G141U, the “polymerase ribozyme fitness (log ratio)” value is no more than -4.2. Consider G94U C108A A120U C123G, for which the “polymerase ribozyme fitness (log ratio)” value was no more than -4.2. In the case of G92C G100A A121U C132U U144C, the “polymerase ribozyme fitness (log ratio)” value is no more than -4.2. With C96G G112C, the “polymerase ribozyme fitness (log ratio)” value is -3.95. With C93U A97U C125A the figure was -2.13.

On to C87G G152U, for which the “polymerase ribozyme fitness (log ratio)” value was -3.57. For the variant C96G C105U C116G A119U C132U, the “polymerase ribozyme fitness (log ratio)” value is -1.57. C87A A107U: the “polymerase ribozyme fitness (log ratio)” value is no more than -4.2. Turning to A91G C96G C99G C118G, the “polymerase ribozyme fitness (log ratio)” value was no more than -4.2. Regarding C93U U104G, the “polymerase ribozyme fitness (log ratio)” value was -1.8. Take C96U C105A: the “polymerase ribozyme fitness (log ratio)” value was -0.493. Take C87U U145G: the “polymerase ribozyme fitness (log ratio)” value was -1.51. With C96U G133A G143U A147G the figure was no more than -4.2; with C96U A97G G124A C149A, -4.08; with C96U G141C, -0.372. Turning to C96A U130C, the “polymerase ribozyme fitness (log ratio)” value came to 0.457. With G92A C103A A107G C116A G140U the figure was no more than -4.2; with A91G U139G, -3.56; with C93A G94U G136C U145G, no more than -4.2. Consider G88C C93G C114U, for which the “polymerase ribozyme fitness (log ratio)” value was no more than -4.2. With G92A C118G the figure was -3.69; with A91U C105G, no more than -4.2; with A91C G112C U146A, no more than -4.2. Consider C87A A115C G124U, for which the “polymerase ribozyme fitness (log ratio)” value is no more than -4.2.

C87G U139A: the “polymerase ribozyme fitness (log ratio)” value is no more than -4.2. As to C95A C96A, the “polymerase ribozyme fitness (log ratio)” value is -2.33. As for C87G A89U U127A A142C, the “polymerase ribozyme fitness (log ratio)” value is no more than -4.2. Take C95U C131G: the “polymerase ribozyme fitness (log ratio)” value is -3.24. Take A91U A97G: the “polymerase ribozyme fitness (log ratio)” value is -3.67.

For C87U U101G A137C, the “polymerase ribozyme fitness (log ratio)” value is -3.73. In the case of C93A C95U, the “polymerase ribozyme fitness (log ratio)” value is -3.37. For C87G U127C, the “polymerase ribozyme fitness (log ratio)” value was no more than -4.2. The value for U90C G92U C95U was no more than -4.2; that for C87A U111C A120U G140U was no more than -4.2; that for C87U A91U A98G A138G G152A was no more than -4.2. Turning to G88C C118U, the “polymerase ribozyme fitness (log ratio)” value was no more than -4.2. Regarding A89C U148C, the “polymerase ribozyme fitness (log ratio)” value is -3.51. In the case of C87A C93U G152A, the “polymerase ribozyme fitness (log ratio)” value was no more than -4.2. Consider C93U G141U, for which the “polymerase ribozyme fitness (log ratio)” value was -0.142. For the variant C87U C118U G143C, the “polymerase ribozyme fitness (log ratio)” value was -2.54.

U90G U101C G140A: the “polymerase ribozyme fitness (log ratio)” value was no more than -4.2.

On to C87A A119C U151A G152C, for which the “polymerase ribozyme fitness (log ratio)” value is no more than -4.2. With G92C C118G C149A, the “polymerase ribozyme fitness (log ratio)” value was no more than -4.2. For the variant C93A A142U, the “polymerase ribozyme fitness (log ratio)” value was -3.16.

As to C87A A106C C125G, the “polymerase ribozyme fitness (log ratio)” value is no more than -4.2. As to G94A U148C, the “polymerase ribozyme fitness (log ratio)” value was -2.75. The value for G94A U148A was -3.08. As for U90A C95U A121U U127A, the “polymerase ribozyme fitness (log ratio)” value was no more than -4.2.

Turning to C93U U101A, the “polymerase ribozyme fitness (log ratio)” value is -2.19. For C87G G140C, the “polymerase ribozyme fitness (log ratio)” value was no more than -4.2. C93U C116G G124U: the “polymerase ribozyme fitness (log ratio)” value was no more than -4.2. C95A G141C: the “polymerase ribozyme fitness (log ratio)” value was 0.744. As for G88U C99U, the “polymerase ribozyme fitness (log ratio)” value is -4.12. As for G94C A122U G133U G140C G152U, the “polymerase ribozyme fitness (log ratio)” value was no more than -4.2.

(Values after the RNAGym collection of RNA variant scans (doi:10.1073/pnas.2313332121).)
